{"source": "PubChem BioAssay AID1030", "about": "(National Center for Advancing Translational Sciences (NCATS), 2008)", "note": "About 16,000 (7.3%) of roughly 220,000 compounds were called active. The inconclusive results got no clear call from the source; some entries with a clear call stand among them for comparison. Calls follow the shape of the dose curve; as a rule, active = well fitted inhibition curve with a large enough effect (not every such curve was filed as active); inconclusive = small, poorly fitted or top-dose-only effect, or another doubt; inactive = no such curve, though single readings can be large or run the other way. Potencies of inconclusive entries are left out as doubtful fits. Potency is read from the fitted curve at half-maximal effect; tags tell the direction and shape of the fitted curve."}
{"biological_target": "Aldehyde dehydrogenase 1A1 (Homo sapiens) (UniProt P00352)", "sequence (P00352 whole entry, looked up)": "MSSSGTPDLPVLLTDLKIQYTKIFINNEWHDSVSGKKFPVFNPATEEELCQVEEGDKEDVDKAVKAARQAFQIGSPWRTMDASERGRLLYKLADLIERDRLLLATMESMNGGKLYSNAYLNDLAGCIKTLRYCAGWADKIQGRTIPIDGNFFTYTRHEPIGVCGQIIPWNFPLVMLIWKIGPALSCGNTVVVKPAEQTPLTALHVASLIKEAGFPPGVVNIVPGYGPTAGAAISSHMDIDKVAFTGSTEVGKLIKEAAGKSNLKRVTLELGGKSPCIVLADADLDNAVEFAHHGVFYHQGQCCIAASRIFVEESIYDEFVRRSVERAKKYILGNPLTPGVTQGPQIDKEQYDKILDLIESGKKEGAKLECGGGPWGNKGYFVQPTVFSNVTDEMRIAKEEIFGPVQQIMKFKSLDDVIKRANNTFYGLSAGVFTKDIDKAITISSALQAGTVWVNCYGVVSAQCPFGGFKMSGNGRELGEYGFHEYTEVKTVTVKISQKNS", "assay": "qHTS Assay for Inhibitors of Aldehyde Dehydrogenase 1 (ALDH1A1);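 as to activity, negative = inhibition: plate controls were no enzyme wells and a reference inhibitor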", "conditions": "Purified ALDH1A1, NADH fluorescence, propionaldehyde substrate; series mostly up to 75.3 µM; activity, negative = inhibition: at the top concentration"}
{"molecule": "CCOC(=O)c1sc2nc(C)nc(NCCc3ccccn3)c2c1C", "Potency": "inconclusive [inhibitor, partial curve]"}
{"molecule": "CCCn1c(=O)c(C(=O)NCc2ccco2)c(O)c2ccccc21", "activity, negative = inhibition": "inactive: -1.13%"}
{"molecule": "C=CCNC(=S)N1CCN(CCN=CC2=C(O)CC(c3cccs3)CC2=O)CC1", "note": "(configuration not stated)", "Potency": "inconclusive [inhibitor, single point]"}
{"molecule": "CCC(=O)N(Cc1cc(=O)[nH]c2ccccc12)c1ccccc1", "Potency": "inconclusive [inhibitor, single point]"}
{"molecule": "COc1ccc(CCNC(=O)Cc2ccc3c(c2)OCO3)cc1OC", "activity, negative = inhibition": "inactive: 1.48%"}
{"molecule": "O=[N+]([O-])c1ccccc1NCCNS(=O)(=O)c1ccc(Cl)cc1", "Potency": "inconclusive [inhibitor, full curve]"}
{"molecule": "Cc1ccc(-c2cc(-c3ccccc3)c(C#N)c(N)n2)o1", "Potency": "inconclusive [inhibitor, partial curve]"}
{"molecule": "Cc1ccccc1NC(=O)Cn1cnc2c(oc3nc4c(cc32)COC(C)(C)C4)c1=O", "Potency": "active: 22.4 µM"}
{"molecule": "O=C(OCn1nnc2ccccc2c1=O)C1COc2ccccc2O1", "note": "(configuration not stated)", "activity, negative = inhibition": "inactive: -7.3%"}
{"molecule": "CC1=C(C(=O)Nc2cccnc2)C(c2ccccn2)n2nnnc2N1", "note": "(configuration not stated)", "Potency": "active: 14.1 µM"}
{"molecule": "O=C(O)C1C2CC2CN1C(=O)c1ccc(Cl)cc1Cl", "note": "(configuration not stated)", "activity, negative = inhibition": "inactive: 1.47%"}
{"molecule": "CC(=O)OC[C@@H]1O[C@H](CCO/N=C\\[C@@H](C)[C@H](OCc2ccccc2)C(C)C)C=C[C@@H]1OC(C)=O", "activity, negative = inhibition": "inactive: 7.57% [at 13.5 µM]"}
{"molecule": "CCCCN(CCCC)S(=O)(=O)c1ccc(NC(=O)CN2CCOCC2)cc1", "Potency": "active: 12.6 µM"}
{"molecule": "CCc1cc(C(=O)COc2ccccc2F)c(O)cc1O", "Potency": "inconclusive [inhibitor, partial curve]"}
{"molecule": "OCCN(CC(O)Cn1ccc2ccccc21)CC(O)Cn1ccc2ccccc21", "note": "(configuration not stated)", "Potency": "active: 28.2 µM"}
{"molecule": "Cc1ccc(N(CCC#N)C(=O)CCl)cc1C", "Potency": "active: 0.355 µM"}
{"molecule": "CC(=O)/C=C(\\C)Nc1ccc(-c2cnc(-c3ccccc3)o2)cc1", "Potency": "inconclusive [inhibitor, partial curve]"}
{"molecule": "O=C(Nc1ccccn1)c1ccco1", "activity, negative = inhibition": "inactive: 4.54%"}
{"molecule": "O=c1cc(N2CCC3(CC2)OCCO3)[nH]c(=O)n1C1CCCCC1", "Potency": "inconclusive [inhibitor, single point]"}
{"molecule": "Cc1cc(C)n2nc(SCc3cc(=O)oc4cc(O)ccc34)nc2n1", "Potency": "inconclusive [inhibitor, single point]"}
{"molecule": "CC(C)(C)C(=O)NCCN1CCN(C(=O)C(C)(C)C)CC1", "activity, negative = inhibition": "inactive: -1.53%"}
{"molecule": "C/C(=N\\NC(=O)c1cc(-c2cccs2)nc2ccccc12)c1ccccn1", "Potency": "inconclusive [inhibitor, single point]"}
{"molecule": "COc1ccc(C(=O)N(CN2CCCC2=O)c2cc(C)on2)cc1OC", "Potency": "inconclusive [inhibitor, single point]"}
{"molecule": "O=C(NC(=S)Nn1cnc2c(cnn2-c2ccccc2)c1=O)c1ccccc1", "Potency": "active: 17.8 µM"}
{"molecule": "O=C(Nc1ccc(C(=O)O)cc1)/C(=C\\c1cccc([N+](=O)[O-])c1)NC(=O)c1ccc(Br)o1", "activity, negative = inhibition": "inactive: -6.17%"}
{"molecule": "COc1ccc(OC)c(-n2c(CNC3CCN(Cc4ccccc4)CC3)nc3ccccc3c2=O)c1", "activity, negative = inhibition": "inactive: 3.69%"}
{"molecule": "COc1ccc(NC(=O)c2c(F)cccc2F)cc1S(=O)(=O)Nc1ccc(Br)cc1", "Potency": "inconclusive [inhibitor, single point]"}
{"molecule": "Cc1cc(C)n(C2CC(=O)N(c3ccc(Cl)c(Cl)c3)C2=O)n1", "note": "(configuration not stated)", "Potency": "inconclusive [inhibitor, single point]"}
{"molecule": "CCOc1cc(/C=C/c2ccc3cccc([N+](=O)[O-])c3n2)ccc1OCC(=O)N(C)C", "Potency": "inconclusive [inhibitor, single point]"}
{"molecule": "N/C(=N\\OC(=O)c1ccccc1)c1ccncc1", "activity, negative = inhibition": "inactive: -2.71%"}
{"molecule": "Cc1ccc2oc(=O)c(/C=C(\\O)CC(C)C)nc2c1", "activity, negative = inhibition": "inactive: -1.35%"}
{"molecule": "N#CCCN1CCn2c1nc1ccccc12", "activity, negative = inhibition": "inactive: 11.7%"}
{"molecule": "CS(=O)(=O)c1ncc(Cl)c(C(=O)Nc2ccc3ccccc3c2)n1", "Potency": "inconclusive [inhibitor, single point]"}
{"molecule": "COc1ccc(O)c(C(=O)C2c3ccccc3C(=O)N2c2ccc(C)cc2)c1", "note": "(configuration not stated)", "Potency": "active: 11.2 µM"}
{"molecule": "FC(F)(F)c1cnc(N2CCCN(C(=S)Nc3ccccc3)CC2)c(Cl)c1", "activity, negative = inhibition": "inactive: 1.67%"}
{"molecule": "CC/C(=N\\NC(=O)c1ccc2c(c1)OCO2)C12CC3CC(CC(C3)C1)C2", "Potency": "inconclusive [inhibitor, single point]"}
{"molecule": "COc1ccc(S(=O)(=O)Nc2ccc3c(c2)n(C)c(=O)n3C)cc1", "activity, negative = inhibition": "inactive: -11.2%"}
{"molecule": "Cc1ccc(S(=O)(=O)NCCCCC(NC(=O)OC(C)(C)C)C(=O)O)cc1", "note": "(configuration not stated) (tested in a mixture with another compound)", "Potency": "inconclusive [inhibitor, single point]"}
{"molecule": "Cc1cc(Cl)ccc1C(=O)C1CCCN(C(=O)c2ccc3ncccc3c2)C1", "note": "(configuration not stated)", "activity, negative = inhibition": "inactive: -4.75%"}
{"molecule": "O=C1OC(=O)c2ccccc21", "activity, negative = inhibition": "inactive: -13.6%"}
{"molecule": "FC(F)(F)c1cnc2c(-c3ccc(Cl)cc3Cl)noc2c1", "Potency": "inconclusive [inhibitor, single point]"}
{"molecule": "CCCCN(CCCC)S(=O)(=O)c1ccc(NS(=O)(=O)c2ccc(NC(C)=O)cc2)cc1", "activity, negative = inhibition": "inactive: -12.2%"}
{"molecule": "N#Cc1ccc(/C=C/C(=O)c2cccnc2)cc1", "Potency": "inconclusive [inhibitor, single point]"}
{"molecule": "O=C(NCCCN1CCCCCC1)c1ccc2c(Cl)c3c(nc2c1)CCCC3", "Potency": "inconclusive [inhibitor, partial curve]"}
{"molecule": "CCOc1ccc2[nH]c(=O)c(C(c3nnnn3Cc3ccco3)N3CCC(C)CC3)cc2c1", "note": "(configuration not stated)", "Potency": "inconclusive [inhibitor, single point]"}
{"molecule": "COc1ccc(Cc2nnc(SCc3ccc([N+](=O)[O-])cc3)o2)cc1", "Potency": "inconclusive [inhibitor, partial curve]"}
{"molecule": "O=S(=O)(c1ccccc1)N1c2cc(Cl)ccc2Oc2nc3ccccc3nc21", "Potency": "inconclusive [inhibitor, partial curve, poor fit]"}
{"molecule": "Cc1cccc(N(CC(=O)Nc2c(C)n(C)n(-c3ccccc3)c2=O)S(C)(=O)=O)c1", "Potency": "inconclusive [inhibitor, single point]"}
{"molecule": "COc1ccc2c(c1)-c1c(ssc1=S)C(C)(C)N2", "Potency": "inconclusive [inhibitor, single point]"}
{"molecule": "Cn1c(=O)c2c(n3cnnc13)-c1ccccc1CC21CCCC1", "Potency": "active: 11.2 µM"}
{"molecule": "Cc1c(C(=O)NCc2ccc3c(c2)OCO3)oc2ccc(S(=O)(=O)N3CCC(C)CC3)cc12", "activity, negative = inhibition": "inactive: -6.54%"}
{"molecule": "CCN1C(=O)/C(=C\\c2ccncc2)SC1=Nc1ccc(C)c(C)c1", "Potency": "inconclusive [inhibitor, partial curve]"}
{"molecule": "S=C(S)O[C@@H]1C[C@@H]2C[C@H]1[C@@H]1CCC[C@H]21", "activity, negative = inhibition": "inactive: 6.47%"}
{"molecule": "NCCC[C@@H](CC(=O)N[C@@H]1CCNC[C@H]1C(=O)N[C@H](CC(=O)N[C@@H](CCC(=O)O)CC(=O)O)Cc1ccccc1)NC(=O)C[C@H](Cc1ccccc1)NC(=O)[C@@H]1CCCC[C@H]1N", "activity, negative = inhibition": "inactive: -7.35%"}
{"molecule": "CC(C)C(c1nnnn1C1CCCC1)N1c2ccccc2CC1C", "note": "(configuration not stated)", "Potency": "inconclusive [inhibitor, single point]"}
{"molecule": "CCc1nnc(NC(=O)CSc2ccc(-c3cccs3)nn2)s1", "activity, negative = inhibition": "inactive: -4.24%"}
{"molecule": "NC(=O)C1=C[C@H](c2ccc(Br)cc2)C[C@H](OCc2ccc(CO)cc2)O1", "Potency": "inconclusive [inhibitor, single point]"}
{"molecule": "COC(=O)CSc1ncnc2c1sc1nc3c(cc12)COC(C)(C)C3", "Potency": "active: 1.41 µM"}
{"molecule": "COc1ccc(/C=N/NC(=O)c2cccc([N+](=O)[O-])c2)cc1OS(=O)(=O)c1ccc(C)cc1", "Potency": "active: 12.6 µM"}
{"molecule": "COc1ccc(N2C(=O)C3CC(C)=C(C)CC3C2=O)c(OC)c1", "note": "(configuration not stated)", "activity, negative = inhibition": "inactive: 10%"}
{"molecule": "COC(=O)CSc1nc2cc(OC)ccc2cc1C#N", "Potency": "inconclusive [inhibitor, single point]"}
{"molecule": "COc1ccc(/C=C2\\NC(=O)[C@@H]3Cc4ccccc4CN3C2=O)cc1", "Potency": "inconclusive [inhibitor, partial curve]"}
{"molecule": "O=C(COc1ccc2ccc(=O)oc2c1)Nc1ccc(N2CCOCC2)cc1", "Potency": "inconclusive [inhibitor, partial curve]"}
{"molecule": "CN(C)C=NC(=O)c1cc(C(=O)c2ccccc2Cl)c[nH]1", "Potency": "inconclusive [inhibitor, partial curve]"}
{"molecule": "Clc1ccc(CSc2nnc(-c3cccnc3)n2Cc2ccco2)c(Cl)c1", "Potency": "active: 4.47 µM"}
{"molecule": "Cc1ccc2[nH]c(=O)c(CN(CCCN3CCOCC3)C(=O)Nc3ccc(Cl)cc3)cc2c1", "activity, negative = inhibition": "inactive: -13%"}
{"molecule": "O=C(CN(Cc1ccccc1)C(=O)CSc1nnc(COc2ccccc2)o1)NC1CCCC1", "Potency": "inconclusive [inhibitor, single point]"}
{"molecule": "CC(=O)N1CCC2(CC1)C(C#N)=C(N)OC1=C2C(=O)CC(C)(C)C1", "Potency": "inconclusive [inhibitor, single point]"}
{"molecule": "CCC(=O)NC(=S)N1CCN(c2ccc([N+](=O)[O-])cc2Cl)CC1", "Potency": "inconclusive [inhibitor, single point]"}
{"molecule": "O=C(c1ccc([N+](=O)[O-])s1)N1CCN(c2cccc(Cl)c2)CC1", "Potency": "inconclusive [inhibitor, single point]"}
{"molecule": "O=C(Nc1ccc(S(=O)(=O)N2CCCCC2)cc1)C1CCCN(C(=O)c2ccc(Cl)cc2)C1", "note": "(configuration not stated)", "activity, negative = inhibition": "inactive: -2.76%"}
{"molecule": "COc1cc(C2C(C(=O)c3ccc(C)o3)=C(O)C(=O)N2c2cc(C)on2)cc(OC)c1OC", "note": "(configuration not stated)", "Potency": "inconclusive [inhibitor, single point]"}
